Consider 16 molecules from the supplement of paper PMC10037445.

SMILES strings stand for the structures. Whole data set: some 2,900 compounds, median “NF-kB SEAP reporter activity, fold change vs agonist alone” near 0.99, cut for the highest 2% near 2.6. The list shows a part of the results.

In test [1] the test system is RAW-Dual. The test can be described thus: NF-kB SEAP reporter activity, fold change vs agonist alone; higher = enhanced NF-kB activity. The settings on record: library stock concentration (final ~1000-fold dilution): 10 mM, cytotoxicity flag (confluency mask): not cytotoxic. Summed up: (§1)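 Reporter activity is given as fold change relative to agonist-alone wells. To measure it, 50 nL of library stock was pin-tooled onto RAW-Dual macrophages (50,000 cells/well, DMEM, 384-well plates), a PRR agonist followed 1 h later, and cells stayed at 37 °C, 5% CO2. Twenty hours on, supernatant was assayed for IRF (QuantiLuc luminescence) and NF-κB (QuantiBlue, 620 nm absorbance), and wells under 70% of agonist-control IncuCyte confluency in both mask sets were marked cytotoxic.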

Test [2] deals with RAW-Dual. The test can be described thus: NF-kB SEAP reporter activity, fold change vs agonist alone; cytotoxicity flag (confluency mask): not cytotoxic; higher = enhanced NF-kB activity. The method in brief:
as §1

Setting [3] is: agonist: ODN 1826 (TLR9) 0.5 ug/mL.
The mark [4] stands for this setting: agonist: Pam2CSK4 (TLR2/6) 0.1 ug/mL.
The mark [5] stands for this setting: agonist: Pam3CSK4 (TLR2/1) 0.1 ug/mL.

For the molecule `CC(C(O)c1ccc(O)cc1)N1CCC(Cc2ccccc2)CC1.CC(C(O)c1ccc(O)cc1)N1CCC(Cc2ccccc2)CC1.O=C(O)C(O)C(O)C(=O)O` (stereo not drawn), the “NF-kB SEAP reporter activity” value in the test on RAW-Dual [1] (agonist: Imiquimod (TLR7) […]) is 1.14; in the test with RAW-Dual [1] (agonist: MPLA (TLR4) […]), 0.926.
For `CC(C(O)c1ccc(O)cc1)N1CCC(Cc2ccccc2)CC1.CC(C(O)c1ccc(O)cc1)N1CCC(Cc2ccccc2)CC1.O=C(O)C(O)C(O)C(=O)O` (stereo not drawn) (library stock concentration (final ~1000-fold dilution): 10 mM), the “NF-kB SEAP reporter activity” value came to 1.19 with RAW-Dual [2] (agonist: LPS (TLR4) 0.1 ug/mL), 0.64 with RAW-Dual [2] (setting [3]), 1.04 with RAW-Dual [2] (setting [4]) and 0.922 with RAW-Dual [2] (setting [5]).
Take `CCCS(=O)c1ccc2nc(NC(=O)OC)[nH]c2c1` (stereo not drawn): the figures for the “NF-kB SEAP reporter activity” value in the test with RAW-Dual [1] (agonist: Imiquimod (TLR7) […]) and in the test with RAW-Dual [1] (agonist: MPLA (TLR4) […]) were 1.04 and 0.808, respectively.
Regarding `CCCS(=O)c1ccc2nc(NC(=O)OC)[nH]c2c1` (stereo not drawn) (library stock concentration (final ~1000-fold dilution): 10 mM), the “NF-kB SEAP reporter activity” value came to 1.06 in the test on RAW-Dual [2] (agonist: LPS (TLR4) 0.1 ug/mL), 0.948 in the test with RAW-Dual [2] (setting [3]), 1.05 with RAW-Dual [2] (setting [4]) and 1.09 in the test with RAW-Dual [2] (setting [5]).
On to `COc1ccc(CC(N)C(=O)NC2C(CO)OC(n3cnc4c(N(C)C)ncnc43)C2O)cc1.Cl.Cl` (stereo not drawn) (library stock concentration (final ~1000-fold dilution): 10 mM), for which the “NF-kB SEAP reporter activity” value with RAW-Dual [2] (agonist: LPS (TLR4) 0.1 ug/mL) was 0.584; in the test with RAW-Dual [2] (setting [3]) it was 0.469; in the test with RAW-Dual [2] (setting [4]) it was 0.13; in the test with RAW-Dual [2] (setting [5]), 0.256.
For the molecule `COc1ccc(CC(N)C(=O)NC2C(CO)OC(n3cnc4c(N(C)C)ncnc43)C2O)cc1.Cl.Cl` (stereo not drawn), the “NF-kB SEAP reporter activity” value in the test on RAW-Dual [1] (agonist: Imiquimod (TLR7) […]) worked out at 0.438; in the test with RAW-Dual [1] (agonist: MPLA (TLR4) […]) it was 1.12.
Regarding `COc1cc2nc(N3CCN(C(=O)C4COc5ccccc5O4)CC3)nc(N)c2cc1OC.CS(=O)(=O)O` (stereo not drawn), the entries for the “NF-kB SEAP reporter activity” value in the test on RAW-Dual [1] (agonist: Imiquimod (TLR7) […]) and in the test on RAW-Dual [1] (agonist: MPLA (TLR4) […]) were 1.28 and 1.52, respectively.
As to `COc1cc2nc(N3CCN(C(=O)C4COc5ccccc5O4)CC3)nc(N)c2cc1OC.CS(=O)(=O)O` (stereo not drawn) (library stock concentration (final ~1000-fold dilution): 10 mM), the “NF-kB SEAP reporter activity” value in the test with RAW-Dual [2] (agonist: LPS (TLR4) 0.1 ug/mL) came out at 1.27; in the test with RAW-Dual [2] (setting [3]) it was 0.201; with RAW-Dual [2] (setting [4]), 1.05; in the test with RAW-Dual [2] (setting [5]), 1.45.
Consider `COc1ccnc2[nH]cc(C(=O)C(=O)N3CCN(C(=O)c4ccccc4)CC3C)c12` (stereo not drawn), for which the “NF-kB SEAP reporter activity” value worked out at 0.968 in the test on RAW-Dual [1] (agonist: Imiquimod (TLR7) […]) and 0.941 in the test on RAW-Dual [1] (agonist: MPLA (TLR4) […]).
Consider `COc1ccnc2[nH]cc(C(=O)C(=O)N3CCN(C(=O)c4ccccc4)CC3C)c12` (stereo not drawn) (library stock concentration (final ~1000-fold dilution): 10 mM), for which the “NF-kB SEAP reporter activity” value in the test on RAW-Dual [2] (agonist: LPS (TLR4) 0.1 ug/mL) worked out at 0.892; in the test on RAW-Dual [2] (setting [3]), 1.05; in the test with RAW-Dual [2] (setting [4]), 1.11; in the test on RAW-Dual [2] (setting [5]) it was 1.1.
`Nc1cc(F)ccc1NC(=O)/C=C/c1cnn(C/C=C/c2ccccc2)c1`: the figures for the “NF-kB SEAP reporter activity” value in the test with RAW-Dual [1] (agonist: Imiquimod (TLR7) […]) and in the test with RAW-Dual [1] (agonist: MPLA (TLR4) […]) were 1.14 and 1.2, respectively.
As to `Nc1cc(F)ccc1NC(=O)/C=C/c1cnn(C/C=C/c2ccccc2)c1` (library stock concentration (final ~1000-fold dilution): 10 mM), the “NF-kB SEAP reporter activity” value stood at 0.995 in the test with RAW-Dual [2] (agonist: LPS (TLR4) 0.1 ug/mL), 1.12 in the test with RAW-Dual [2] (setting [3]), 0.405 in the test with RAW-Dual [2] (setting [4]) and 0.419 in the test on RAW-Dual [2] (setting [5]).
Take `O=C(Nc1nccs1)C(c1cc(F)ccc1O)N1Cc2ccccc2C1=O` (stereo not drawn) (library stock concentration (final ~1000-fold dilution): 10 mM): the “NF-kB SEAP reporter activity” value stood at 0.902 with RAW-Dual [2] (agonist: LPS (TLR4) 0.1 ug/mL), 0.989 in the test with RAW-Dual [2] (setting [3]), 0.865 in the test on RAW-Dual [2] (setting [4]) and 1.02 in the test on RAW-Dual [2] (setting [5]).
As to `O=C(Nc1nccs1)C(c1cc(F)ccc1O)N1Cc2ccccc2C1=O` (stereo not drawn), the “NF-kB SEAP reporter activity” value in the test with RAW-Dual [1] (agonist: Imiquimod (TLR7) […]) was 0.944; in the test with RAW-Dual [1] (agonist: MPLA (TLR4) […]) it was 0.982.
With `NC1=NC(c2cccc(-c3cncnc3)c2)(c2ccnc(C(F)F)c2)c2cccc(F)c21` (stereo not drawn) (library stock concentration (final ~1000-fold dilution): 10 mM), the “NF-kB SEAP reporter activity” value was determined as 1.01 in the test with RAW-Dual [2] (agonist: LPS (TLR4) 0.1 ug/mL), 0.837 in the test with RAW-Dual [2] (setting [3]), 0.902 with RAW-Dual [2] (setting [4]) and 1 in the test with RAW-Dual [2] (setting [5]).
`NC1=NC(c2cccc(-c3cncnc3)c2)(c2ccnc(C(F)F)c2)c2cccc(F)c21` (stereo not drawn): the “NF-kB SEAP reporter activity” value worked out at 0.724 with RAW-Dual [1] (agonist: Imiquimod (TLR7) […]) and 1.05 with RAW-Dual [1] (agonist: MPLA (TLR4) […]).
